Values marked as one replicate rest on one cluster of the flow cell; about a third of the high ones do not repeat.
Tested on: ATP
Assay: switch fluorescence ratio, 500 uM ATP over buffer (Cy3 cluster intensity, sum of 5 cycles each) (fold (ratio)); higher = stronger signal-on switching upon ATP binding; sequences stand for … in TCGTCGGCAGCGTCAGATGTGTATAAGAGACAGTTTTTTTTTTTTTTTTTTTTTTTTT…TC
Conditions: aptamer strand: ATP DNA aptamer (quencher-CACCTGGGGGAGTATTGCGGAGGAAGG + anchor), 100 nM annealed; ATP concentration: 500 uM; one replicate
Procedure, shortened: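 Values give the fluorescence ratio for each switch-domain sequence, averaged from per-cluster ratios of summed target-cycle to summed buffer-cycle Cy3 intensity. The Cy3-labelled switching-strand clusters sat on a modified Illumina MiSeq flow-cell, were annealed to 100 nM quencher-labelled ATP aptamer, and were imaged in selection buffer, then after 15 min with 500 uM ATP at 22 °C. Five cycles ran with NaOH stripping and re-annealing between them, and clusters outside 100-1000 RFU were excluded.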
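Further: ATP exposure 15 min at 22 °C before imaging.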

Sequence | switch fluorescence ratio
AGGGTTGGCG | 0.971
ATCGTTAAAG | 0.991
CTGATTCTGG | 0.942
GATTTGAGAG | 0.991
AAAAGTCCTG | 0.976
TTTTGTTGC | 1.01
AGATCTTATG | 0.987
AGCTGTTGAC | 1.02
CAAACTATGC | 1.07
GGACTTGCTG | 1.05
GAAAGATGT | 0.992
CAACCAACTA | 1.03
GGGGTCGGAG | 1
GAAATCGACA | 1.06
ATGTGCGCGA | 1.09
GCAGGGGAGC | 1.06
GCCTGATGTG | 1.01
GATTGACTCG | 1
TACGTAAG | 1.11
ATTGGTGATA | 0.98
CATGTCTTGG | 1.06
AAAATAGACC | 1.13
GATGCGTGTT | 0.944
CGGATGCAGG | 0.966
ATAGAAATGG | 0.99
AATTGTTGAC | 1.03

Sequence | switch fluorescence ratio
GTGTGGTAGT | 0.919
AGACGGTCAG | 0.988
TAAACATGCC | 1.42
CCAATTCTTA | 1.01
TAGAGTAGTC | 0.983
ATCGCCGCAC | 2.54
TCCTAATCCC | 1.05
ACGGGGAGCG | 1.03
AAACGTTTGA | 1.02
TTAATTAATC | 0.985
AACTTCATTT | 1.03
TACTAGCTGA | 1.01
TATCTGCGTA | 1.02
GTGCCTTACC | 1.02
TGGGCGACAA | 1.19
CTGCTCTAGA | 1.02
ACTGGATGGC | 0.993
CCACGGAG | 1.02
TCTGACGGCC | 1.1
GGCGCGCGAT | 0.989
GCGCGGCGCT | 0.97
ACGAGGCGGT | 1.45
CCTCTATGA | 1.35
TTCCTCTACG | 1.42
AGGAAATTGA | 1.01
CCGGTTGGCA | 1.87

Sequence | switch fluorescence ratio
TCGTGCCGAT | 1
AACTCTCACC | 1.11
CGCGAAATAG | 1.04
CGTAGCGTGT | 0.999
GGCAGGGAAG | 0.976
GGTATCAGTC | 0.991
CATAAGCGCA | 1.01
CGTTTGGTTG | 0.928
TACCCACGCA | 1.45
ACGCGCTACT | 1.07
CGCGCGGAGG | 1.03
ATTTTCATCT | 0.963
TGAGATTCGA | 1.04
GTTTCCTACA | 0.998
ATACTGGATC | 1.05
GTGAGTATTT | 0.979
GATTGCCGCA | 1.1
TGTTGCATGC | 0.933
TTCGAAAACA | 1.03
TATGCGTATT | 0.991
ATAACAAAA | 1.06
AATGCCTTGA | 1.03
ACACAGGACA | 1.17
AAGTCTGAGA | 0.975
GCCAGCTGCG | 0.982
CTCTTTATCG | 1.03

Sequence | switch fluorescence ratio
TATAGGTAAG | 0.97
ATTAGGACCT | 1.3
AGTTGCTAGA | 0.967
CTGATAAGAG | 0.955
GCCATCTGGA | 1.01
GGGCGGGAG | 0.996
AGGGCAAAGG | 1.04
GCGTGGGGTG | 1.04
AGGCATTTG | 1.01
GCACATGAGC | 0.953
TCGCTTGGGC | 0.967
ATGATCGTAG | 0.958
CAGCGTATGC | 1.06
ACTGTGTAAG | 0.98
CACCCCGAT | 1.18
GCGTTTTCTG | 0.978
TGACTATGTG | 0.968
AGAACGTTGT | 0.859
GTGTCTCGTT | 0.994
TGATAAGAAG | 1.01
CGGCAACGGA | 0.991
AGTGACTGAA | 0.996
ATTTTCTCCT | 1.03

— the supplement of paper PMC10126150
